From PubChem BioAssay AID488969 (Vanderbilt High Throughput Screening Facility, 2010) come the findings set out here.

Molecules are shown by their SMILES. Whole data set: some 110,000 compounds, median “z-score” near -0.1, cut for the highest 2% near 2. This is one part of the list.

This assay deals with Metabotropic glutamate receptor 8 (Rattus norvegicus) (UniProt P70579). As to the kind of experiment: rat mGluR8 modulators via GIRK flux, primary screen, cell-based, thallium flux, HTS (AID 488969). Particulars: HEK293 rat mGluR8, GIRK (G protein-gated inwardly rectifying potassium channel) thallium flux, FluoZin2; at 10 µM; stronger effect = higher value; submaximal glutamate (EC20) added with thallium.
Chain of UniProt P70579 (P70579 whole entry, looked up): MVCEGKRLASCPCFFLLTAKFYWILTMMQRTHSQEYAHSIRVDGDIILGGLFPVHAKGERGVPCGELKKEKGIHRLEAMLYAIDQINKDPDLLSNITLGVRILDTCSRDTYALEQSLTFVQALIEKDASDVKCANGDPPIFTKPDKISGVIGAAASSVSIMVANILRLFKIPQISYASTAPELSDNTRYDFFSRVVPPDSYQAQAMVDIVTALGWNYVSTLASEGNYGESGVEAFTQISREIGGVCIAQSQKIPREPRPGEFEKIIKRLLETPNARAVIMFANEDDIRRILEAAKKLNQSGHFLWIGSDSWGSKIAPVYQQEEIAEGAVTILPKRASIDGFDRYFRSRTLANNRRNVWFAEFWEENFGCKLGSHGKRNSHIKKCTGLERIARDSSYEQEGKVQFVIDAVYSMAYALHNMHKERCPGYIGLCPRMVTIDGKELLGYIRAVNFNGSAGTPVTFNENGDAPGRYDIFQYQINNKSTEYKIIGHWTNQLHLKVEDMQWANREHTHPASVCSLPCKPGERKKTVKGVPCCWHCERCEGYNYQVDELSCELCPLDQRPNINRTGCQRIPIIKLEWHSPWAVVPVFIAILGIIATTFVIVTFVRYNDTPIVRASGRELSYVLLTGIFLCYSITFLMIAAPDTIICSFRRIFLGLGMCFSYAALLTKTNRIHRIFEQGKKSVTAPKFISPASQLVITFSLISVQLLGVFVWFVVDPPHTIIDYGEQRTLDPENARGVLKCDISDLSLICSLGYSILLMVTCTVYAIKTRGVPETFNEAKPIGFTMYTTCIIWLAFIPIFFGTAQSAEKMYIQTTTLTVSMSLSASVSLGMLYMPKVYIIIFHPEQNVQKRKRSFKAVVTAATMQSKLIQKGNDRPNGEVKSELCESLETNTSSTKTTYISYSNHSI
Molecule `C/C(=N\Nc1ccccn1)c1ccc(S(=O)(=O)NCc2ccco2)cc1` had a z-score of -0.376.
In turn, `CN(C)/C=C(\C#N)c1nc2ccccc2[nH]1` displayed a z-score of 0.00195.
Take `CCCCn1nnnc1NCc1cccs1`: the z-score was -1.89.
`COc1cc(C2N=C(c3ccccc3)NO2)cc(Br)c1O` (stereo not given) yielded a z-score of -0.46.
`Cc1ccc(/C=N/Nc2ncc(Cl)cc2Cl)s1` came in with a z-score of 0.576.
On to `Cc1nn(-c2ccc(F)cc2)c(C)c1NS(=O)(=O)c1ccc(Cl)cc1`, for which the z-score is -0.396.
Regarding `Cc1ccc(C2CC(=O)c3cnc(N4CCc5ccccc5C4)nc3C2)cc1` (stereo not given), the z-score is -0.128.
`CCOc1ccccc1NC(=O)CSc1nnc(CNC(=O)COc2ccc(Cl)cc2)o1` displayed a z-score of 0.0919.
`COC(=O)NNC(=O)C1CCC(C(=O)NNC(=O)OC)CC1` (stereo not given) came in with a z-score of -0.429.
For the molecule `O=C(c1ccco1)N1CCN(CC(=O)N(C2CCCCC2)C2CCS(=O)(=O)C2)CC1` (stereo not given), the z-score was found to be 0.0392.
On to `COc1ccccc1-c1nnc(SCC(=O)Nc2ccccc2)o1`, for which the z-score is -0.359.
With `CCOC(=O)Cn1c(=NC(=O)c2ccc([N+](=O)[O-])s2)sc2ccccc21`, the z-score is -0.342.
Molecule `COc1ccc(CC(=O)Nc2nc3ccc(F)cc3s2)cc1S(=O)(=O)N1CCOCC1` gave a z-score of -1.36.
As to `COc1cc(OC)cc(C(=O)N2CCN(Cc3ccccc3C(F)(F)F)CC2)c1`, the z-score was -0.0879.
Molecule `CC(/C=N/NC(=O)Cn1cnc2ccccc21)=C\c1ccccc1` showed a z-score of -0.0924.
`CN(CC(=O)N1CCCCCC1)S(=O)(=O)c1ccc(Br)s1` showed a z-score of -0.194.
The molecule `CCn1c(=O)cc(SCC(=O)N2CCN(C)CC2)c2ccccc21` showed a z-score of -0.148.
For `COc1ccccc1OCC(=O)NCCSCc1ccccc1Cl` the value was 0.342; for `Cc1nnc(SCc2cc(=O)n3[nH]cnc3n2)s1`, 0.132; for `CCOCCCNC(=O)CCNS(=O)(=O)c1ccc(C)cc1`, -0.152.
The molecule `Cc1ccc(-n2c(C)cc(C)c(C#N)c2=O)cc1` displayed a z-score of -0.259.
`CCOC(=O)c1cc2occc2n1Cc1ccc(F)cc1`: the z-score was -0.169.
With `COc1ccc(NC(=O)CSc2nc3c(c(=O)n2-c2ccc(F)cc2)SCC3)cc1`, the z-score is -0.848.
In turn, `O=C(COc1ccc(Cl)cc1Cl)OCC(=O)N1CCCc2ccccc21` returned a z-score of -0.0629.
For `COc1ccc(Cc2nnc(NC(=O)Cn3cnc4c3c(=O)n(C)c(=O)n4C)s2)cc1OC` the value was 0.927.
In turn, `COc1ccc(/C=N/NC(=O)c2nc(-c3ccccc3)cc(-c3ccccc3)n2)cc1O` registered a z-score of -0.36.
As to `COc1ccc(S(=O)(=O)N2CCN(c3ccc4nnc(-c5ccc(F)cc5)n4n3)CC2)cc1`, the z-score is -0.448.
With `Cc1cc(=O)n(CC(C)C)c(O)c1C#N`, the z-score worked out at 0.105.
Molecule `Cc1ccccc1Cn1cc(NC(=O)c2noc3c2CC(C(C)(C)C)CC3)cn1` (stereo not given) showed a z-score of -0.63.
On to `COC(=O)c1ccc(COc2ccc(C3C4=C(CCCC4=O)Nc4onc(C)c43)cc2)cc1` (stereo not given), for which the z-score came to 0.0911.
As to `CNC(=S)N(Cc1cccs1)Cc1cc2cc(OC)ccc2[nH]c1=O`, the z-score was -0.0724.
Next, `Cc1ccc(C)c(NC(=S)N2CCN(c3cccc(C(F)(F)F)c3)CC2)c1`: -0.186; `O=C(O)CSc1nc2ccccc2o1`: 0.0704.
`Cc1cnc(C(=O)Nc2ccccc2F)cn1` registered a z-score of -0.0388.
Molecule `Cc1cccc(NC(=O)CSc2nsc(SCC(=O)Nc3cccc(C)c3)c2C#N)c1` had a z-score of -0.0761.
Next, `CCOC(=O)C1CCN(C(=O)CSc2nnc(-c3ccco3)n2-c2ccccc2)CC1`: -0.369; `COc1cc(OC)c(C#N)c(S(=O)(=O)Cc2ccccc2)c1`: -0.17.
`CCC(=O)N(C)/C=C1\Sc2ccccc2C1=O`: the z-score is -0.122.
`CCCCCCCC(=O)NNC(=O)c1ccc([N+](=O)[O-])cc1` had a z-score of -0.209.
Regarding `CCOC(=O)c1sc(=S)n(-c2ccccc2)c1SC`, the z-score was -0.103.
The molecule `CC1(C)CC(=O)C([N+](=O)[O-])=C(NCCCO)C1` registered a z-score of 0.365.
`CCc1cc(C(=O)Cc2ccc(F)cc2)c(O)cc1O` had a z-score of -0.133.
The molecule `Cc1ccnc2nc(C(=O)Nc3nccs3)nn12` gave a z-score of 0.755.
Regarding `CCOc1ccc(C(=O)c2cc([N+](=O)[O-])ccc2Cl)cc1`, the z-score was -0.0524.
As for `CCS(=O)(=O)N1Cc2ccccc2CC1C(=O)Nc1nccs1` (stereo not given), the z-score is 0.904.
`Cc1ccc(S(=O)(=O)N2CCC(C(=O)N3Cc4ccccc4C3)CC2)cc1` returned a z-score of 0.318.
Next, `COCCNC(=O)c1cc2oc3ccccc3c2n1C`: 0.0795; `COc1cccc(-c2csc(N3CCN(C(=S)Nc4ccccc4OC)CC3)n2)c1`: -0.186.
As for `COCCNC(=O)Cn1cc2c(n1)CCC(C)C2` (stereo not given), the z-score was -0.03.
As for `O=C(CC1COc2ccccc2O1)NCCc1ccccc1` (stereo not given), the z-score is -0.0967.
`C=CCN1C(c2ccccc2)=CS/C1=C(/C#N)c1nnc(N2CCOCC2)n1-c1ccccc1` returned a z-score of -0.29.
The molecule `CSCCC(NC(=O)c1cncc(Br)c1)C(=O)O` (stereo not given) returned a z-score of 0.306.
The molecule `CCC(=O)N1CCN(c2ccc(Cl)cc2NC(=O)c2ccc(Br)o2)CC1` registered a z-score of 0.00401.
Next, `CC(=O)NC1(c2ccccc2)CCN(C(=O)N2CCOCC2)CC1`: 1.61.
Next, `CCN1CCN(C(=O)c2cc3nc(-c4ccccc4)cc(C(F)(F)F)n3n2)CC1`: 0.0572.
As for `O=C(NCc1ccc(F)cc1)c1ccc(CS(=O)(=O)Cc2ccc(F)cc2)o1`, the z-score is -0.313.
On to `Cc1ccc(NC(=O)COC(=O)CCC(=O)c2cccs2)cc1S(=O)(=O)N1CCOCC1`, for which the z-score was -0.276.
With `CC(=O)c1nc(N2C(=O)CC(Cc3ccc(C)cc3)C2=O)sc1C` (stereo not given), the z-score was -0.714.
In turn, `COc1ccc(C(C)=O)cc1CSc1nnc(-c2ccc(Cl)cc2)n1-c1ccccc1` came in with a z-score of -0.682.
In the case of `Cc1cc(NC(=O)c2noc3c2CCCC3)nn1Cc1ccc(Cl)cc1`, the z-score was 0.522.
On to `C=CCn1c(O)c(C=Nc2ccc(Cc3ccncc3)cc2)c(=O)[nH]c1=S`, for which the z-score was -0.0822.
`CN(C)c1ncc(S(=O)(=O)c2ccccc2)c(-c2ccc(Cl)cc2Cl)n1` registered a z-score of -0.073.
In the case of `CCOc1ccc2nc(Cl)c(C3CC(c4ccccc4)=NN3C(=O)c3cccs3)cc2c1` (stereo not given), the z-score is -0.13.
The molecule `COC(=O)c1ccc(C2c3c(oc4ccccc4c3=O)C(=O)N2CCCN2CCOCC2)cc1` (stereo not given) came in with a z-score of 0.249.
For `COc1ccc2c(c1)Cc1sc(NC(C)=O)nc1-2` the value was -0.0354.
Molecule `CCOC(=O)c1ccc(N=c2sc(C(=O)OC)cc(=O)n2CCCN2CCOCC2)cc1` returned a z-score of 0.736.
Molecule `O=C(/C=C/c1ccc(S(=O)(=O)NCc2ccco2)cc1)NCc1ccccc1Cl` came in with a z-score of 0.0386.
Take `CCc1ccc2[nH]c(=O)c(CN(Cc3ccc4c(c3)OCO4)Cc3nnnn3C3CCCC3)cc2c1`: the z-score is -0.918.
Take `O=C(NC1CCCC1)C(c1cccnc1)N(C(=O)c1csnn1)C1CCCC1` (stereo not given): the z-score is -0.145.
`CN(C)S(=O)(=O)c1ccc(Cl)c(NC(=O)CSc2nc3ccccc3c(=O)n2CCCN2CCOCC2)c1` had a z-score of -0.013.
